Assay results taken from the RNAGym collection of RNA variant scans (doi:10.7554/elife.90254).
The source gives no read counts; variants with many changes may rest on few reads.

B1: LINE1-mini (parent)
chain: GGCAGAGCUCAACACAGCGUGGCAAAGUGGCUGUGGCUAGACUGCC

Variants of: B1
Experiment: self-cleavage, relative activity (ratio to wild type); higher = more cleavage; in vitro, sequencing; the parent is a self-cleaving ribozyme

Variant	self-cleavage
GGCAGAGAUCAACACACAGUGGCAAAGUGGGUGUGGCUAGACUGCC [C8A G17C C18A C31G]	0.06
GGCAGAGAUCAACACAGCGUGGCAAAAUGGCUGAGGCUAGACUGCC [C8A G27A U34A]	0.05
GGCAGAGAUCAACACAUCGUGGCAAAGUAGCUGUGGCUAGACUGCC [C8A G17U G29A]	0.12
GGCAGAGAUCAACACAACGUCGCGAAGUGGCUGUGGCUAGACUGCC [C8A G17A G21C A24G]	1.01
GGCAGAGAUCAACACAACGGGGCAAAGUGGCUGUGGCUAGACUGCC [C8A G17A U20G]	0.09
GGCAGAGAUCAACACAACGUGGCGAAGUGGCUGUGGCUAGACUGCC [C8A G17A A24G]	0.26
GGCAGAGAUCAACACAUCGUGGCAAAGUGGCUGUGCCUAGUCUGCC [C8A G17U G36C A41U]	0.16
GGCAGAGAUCAACACAGCUUGGCAAAUUGGCUGCGGCUAGACUGCC [C8A G19U G27U U34C]	0.02
GGCAGAGAUCAACACACUGUGACAAAGUGGCUGUGGCUAGACUGCC [C8A G17C C18U G22A]	0.1
GGCAGAGAUCAACACAGCGUAGCAAAGUGCCUGUGGCUAGACUGCC [C8A G21A G30C]	0.06
GGCAGAGAUCAACACACCGUGGCAAAGUGCCUGUGGCUAGACUGCC [C8A G17C G30C]	0.11
GGCAGAGAUCAACACAGCGUUGCAAAGAGGCUGUGGCUAGACUGCC [C8A G21U U28A]	0.08
GGCAGAGAUCAACACAGCGUAGCAAAGUGGCUGUCGCUAGACGGCC [C8A G21A G35C U43G]	0.38
GGCAGAGAUCAACACAGCGUGCCAAAGUGGCUGUUGCUGGACUGGC [C8A G22C G35U A39G C45G]	0.08
GGCAGAGAUCAACACAGCGUUACAAAGUGCCUGUGGCUAGACUGCC [C8A G21U G22A G30C]	0.1
GGCAGAGAUCAACACAGUGUGGCAAAGAGGCUGUGGCUAGACUGCC [C8A C18U U28A]	0.4
GGCAGAGAUCAACACAACGUGGCAAAGUGGCUGUGGCUAAACUGCG [C8A G17A G40A C46G]	0.22
GGCAGAGAUCAACACAGCGUAUCAAAGUGGCUGUGGCUAGACUGCC [C8A G21A G22U]	0.22
GGCAGAGAUCAACACAGCGUGGCAAAGUGGCUUUGGCUAGUCUGCC [C8A G33U A41U]	0.18

Variant	self-cleavage
GGCAGAGAUCAACACAGCAUGGCAACGUGGCUGUGGCUAGACUGCC [C8A G19A A26C]	0.06
GGCAGAGAUCAACACAGCCUGGCAAAGUGGCUGUGGUUAGACCGCC [C8A G19C C37U U43C]	0.05
GGCAGAGAUCAACACAGCGUGGCAAAGUGGCUGUAACGAGACUGCC [C8A G35A G36A U38G]	0.02
GGCAGAGAUCAACACAACGUGGCAAAGUGGCUGUGGCUAGACUGCA [C8A G17A C46A]	0.28
GGCAGAGAUCAACACAUCGUGGAAAAGUGGCUGUGGCUAGACUGCC [C8A G17U C23A]	0.61
GGCAGAGAUCAACACAAUGUGGCAAAGUGGCUUUGGCUAGACUGCC [C8A G17A C18U G33U]	0.12
GGCAGAGAUCAACACAGCGUGUCAAAUUGGCCGUGGAUAGACUGCC [C8A G22U G27U U32C C37A]	0.03
GGCAGAGAUCAACACAGCGUAGCAAAGUGCAUUUGGCUAGACUGCC [C8A G21A G30C C31A G33U]	0.16
GGCAGAGAUCAACACAGCGUGGUAAAGUGGCUGUGGCGAGACUGCC [C8A C23U U38G]	0.02
GGCAGAGAUCAACACAGCGUGCCAAAGUGGCUGUGCCUAGACUGCC [C8A G22C G36C]	0.15
GGCAGAGAUCAACACACCGUGGCAAACUGGCUGUGACUAGACUGCC [C8A G17C G27C G36A]	0.11
GGCAGAGAUCAACACAGCGUGAGAAAGUGGCUGUGGCUAGACUGCC [C8A G22A C23G]	0.21
GGCAGAGAUCAACACAGCUUGGUAAAGUGGCUGUGGCUUGACUGCC [C8A G19U C23U A39U]	0.02
GGCAGAGAUCAACACAGCGUGGCAAACUGGCUGAGGCUAGAUUUCC [C8A G27C U34A C42U G44U]	0.24
GGCAGAGAUCAACACAGCGUGGCAAAGUGGUUGUGGGUAGACUGCG [C8A C31U C37G C46G]	0.1
GGCAGAGAUCAACACAACGUAGCAAAGUGACUGUGGCUAGACUGCC [C8A G17A G21A G30A]	2.05
GGCAGAGAUCAACACACCGUGGCAAAGUGGCUGUUGGUAGACUGCC [C8A G17C G35U C37G]	0.05
GGCAGAGAUCAACACAGCGUGGCAAAGUGACUGUGGCUAAACGGCC [C8A G30A G40A U43G]	0.31
GGCAGAGAUCAACACAGCGUGGAACAGUGGCUGUGGCUAGACUGCC [C8A C23A A25C]	0.33

Variant	self-cleavage
GGCAGAGAUCAACACAGCGUGGAAAAGUAGCUGCGGCUAGACUGCC [C8A C23A G29A U34C]	0.19
GGCAGAGAUCAACACAGCGUGGCAAAGUUGCUGUGGCUAGAUUGCC [C8A G29U C42U]	0.1
GGCAGAGAUCAACACAUCGUUGCAAAGUGGCUGUGGCUAUACUGCC [C8A G17U G21U G40U]	0.04
GGCAGAGAUCAACACAGCGUGGCAAAGUGGGGGUGGCUAGACUGCC [C8A C31G U32G]	0.06
GGCAGAGAUCAACACAGCGUGGCAAAGUGGCUGUGGCUAGACUCUC [C8A G44C C45U]	0.14
GGCAGAGAUCAACACAGCGUGGCAAAGUGGCUGUAGCUAUACUGCC [C8A G35A G40U]	0.09
GGCAGAGAUCAACACAGCCUGCCAAAGUGGCUGUGGCUAGACUGCC [C8A G19C G22C]	0.22
GGCAGAGAUCAACACAGCGUGGCAAAGUUGCUGUGGCUAUACUGCC [C8A G29U G40U]	0.14
GGCAGAGAUCAACACAGCCUGGCAAAGUGGCUGGGGCUAGUCUGCC [C8A G19C U34G A41U]	0.19
GGCAGAGAUCAACACAGCGUGGCAAAGUGGCUGUGUCUAGACUCCC [C8A G36U G44C]	0.34
GGCAGAGAUCAACACAGCGUUGCAAAAUGGCCGUGGCUAGAUUGCC [C8A G21U G27A U32C C42U]	0.05
GGCAGAGAUCAACACAGCGUUGCAAAUUGGCUGUGGCUAGACUGCC [C8A G21U G27U]	0.1
GGCAGAGAUCAACACAAAGUGGCAAAUUGGCUGUCGCUAGACUGCC [C8A G17A C18A G27U G35C]	0.06
GGCAGAGAUCAACACAGCGUUGCAAAGUGGCUGCGCCUAGACUGCC [C8A G21U U34C G36C]	0.09
GGCAGAGAUCAACACACCGUGGCGAAGUGGCUGUGGCUAGCCUACC [C8A G17C A24G A41C G44A]	0.09
GGCAGAGAUCAACACAGCGUGGCAAAGUCGCUGUGGCUAGAAUGCC [C8A G29C C42A]	0.25
GGCAGAGAUCAACACAGCGUAGCAAAGUGGCUGUGGCUAGCGUGCC [C8A G21A A41C C42G]	0.35
GGCAGAGAUCAACACAGCGUGGAAUAGUGGCUAUGGCUAGACCACC [C8A C23A A25U G33A U43C G44A]	0.2
